The record followed here is article PMC10539329, “NLRP6 potentiates PI3K/AKT signalling by promoting autophagic degradation of p85α to drive tumorigenesis” (Nature Communications, 2023).

By UniProt entry, the sequences of proteins in these tests, tags left out. Where a name states a change or a piece, a line headed by the entry shows the natural chain unless it says otherwise.
UniProt P27986: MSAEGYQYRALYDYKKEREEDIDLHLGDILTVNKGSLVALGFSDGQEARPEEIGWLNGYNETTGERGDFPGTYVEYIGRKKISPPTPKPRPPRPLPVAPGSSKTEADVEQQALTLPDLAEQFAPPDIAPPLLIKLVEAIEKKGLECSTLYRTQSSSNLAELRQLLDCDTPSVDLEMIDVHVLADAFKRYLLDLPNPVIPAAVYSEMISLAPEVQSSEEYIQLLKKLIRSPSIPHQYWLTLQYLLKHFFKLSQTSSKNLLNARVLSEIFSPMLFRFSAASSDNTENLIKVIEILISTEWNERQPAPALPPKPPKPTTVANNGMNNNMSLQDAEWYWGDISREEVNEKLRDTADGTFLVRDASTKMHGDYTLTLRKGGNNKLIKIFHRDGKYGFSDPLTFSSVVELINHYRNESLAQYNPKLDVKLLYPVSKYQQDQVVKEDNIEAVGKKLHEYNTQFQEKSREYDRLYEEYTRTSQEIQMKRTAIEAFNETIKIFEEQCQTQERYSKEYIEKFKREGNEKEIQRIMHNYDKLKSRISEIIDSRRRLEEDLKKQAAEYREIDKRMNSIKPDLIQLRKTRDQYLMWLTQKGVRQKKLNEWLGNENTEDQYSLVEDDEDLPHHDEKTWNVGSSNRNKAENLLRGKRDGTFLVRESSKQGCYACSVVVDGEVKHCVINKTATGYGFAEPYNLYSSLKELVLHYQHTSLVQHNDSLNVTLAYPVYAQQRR
UniProt Q96CV9: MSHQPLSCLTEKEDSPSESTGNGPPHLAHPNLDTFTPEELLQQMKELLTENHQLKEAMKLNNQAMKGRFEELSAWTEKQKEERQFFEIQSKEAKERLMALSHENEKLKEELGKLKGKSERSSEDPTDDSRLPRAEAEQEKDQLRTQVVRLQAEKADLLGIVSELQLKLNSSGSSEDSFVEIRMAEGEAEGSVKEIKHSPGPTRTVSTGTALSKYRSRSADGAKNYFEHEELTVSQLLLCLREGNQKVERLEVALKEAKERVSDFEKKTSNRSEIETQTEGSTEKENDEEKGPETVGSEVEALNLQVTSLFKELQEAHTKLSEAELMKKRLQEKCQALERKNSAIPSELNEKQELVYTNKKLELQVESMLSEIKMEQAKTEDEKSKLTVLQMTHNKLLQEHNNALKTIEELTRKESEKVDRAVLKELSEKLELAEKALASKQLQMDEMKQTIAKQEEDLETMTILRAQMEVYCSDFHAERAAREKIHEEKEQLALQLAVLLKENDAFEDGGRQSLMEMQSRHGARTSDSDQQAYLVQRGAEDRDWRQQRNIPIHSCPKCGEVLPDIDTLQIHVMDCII
UniProt P63208: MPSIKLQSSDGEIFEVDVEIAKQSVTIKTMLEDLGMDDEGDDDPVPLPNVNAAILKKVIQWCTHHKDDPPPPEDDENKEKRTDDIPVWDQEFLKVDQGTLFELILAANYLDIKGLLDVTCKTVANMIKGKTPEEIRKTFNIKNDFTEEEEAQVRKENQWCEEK

These are yes or no findings as the source states them, for the method shown. For some assays here: In cells and extracts the contact can be indirect. Some entries that bind do so weakly or less than the wild type. For some assays here: Tags and fused reporters may be left off the sequences shown.

The target of test [1] is T1, NLRP6 (transfected, tag not stated) (human) (UniProt P59044).
T1 sequence: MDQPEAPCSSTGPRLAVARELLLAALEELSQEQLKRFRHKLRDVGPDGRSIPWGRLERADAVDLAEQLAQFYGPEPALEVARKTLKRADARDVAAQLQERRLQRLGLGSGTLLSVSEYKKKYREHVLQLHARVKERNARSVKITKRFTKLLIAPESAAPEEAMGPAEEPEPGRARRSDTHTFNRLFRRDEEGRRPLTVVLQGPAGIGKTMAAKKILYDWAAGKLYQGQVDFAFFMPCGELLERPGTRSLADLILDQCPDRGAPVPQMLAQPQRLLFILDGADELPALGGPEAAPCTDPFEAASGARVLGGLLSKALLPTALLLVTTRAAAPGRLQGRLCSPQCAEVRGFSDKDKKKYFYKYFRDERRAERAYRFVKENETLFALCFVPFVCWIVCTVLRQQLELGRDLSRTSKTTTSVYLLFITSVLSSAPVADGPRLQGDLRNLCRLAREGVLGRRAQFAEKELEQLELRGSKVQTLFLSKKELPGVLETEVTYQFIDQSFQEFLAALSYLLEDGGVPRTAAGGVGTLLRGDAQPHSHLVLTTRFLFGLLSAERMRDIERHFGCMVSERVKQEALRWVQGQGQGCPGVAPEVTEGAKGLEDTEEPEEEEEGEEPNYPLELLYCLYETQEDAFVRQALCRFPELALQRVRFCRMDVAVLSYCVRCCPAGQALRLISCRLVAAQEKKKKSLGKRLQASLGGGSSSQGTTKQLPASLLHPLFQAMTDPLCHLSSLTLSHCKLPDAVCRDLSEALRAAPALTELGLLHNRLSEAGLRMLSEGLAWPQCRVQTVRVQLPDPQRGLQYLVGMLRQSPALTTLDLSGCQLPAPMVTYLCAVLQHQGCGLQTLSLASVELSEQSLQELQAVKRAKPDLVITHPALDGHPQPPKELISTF
The test is described as follows: co-IP; HEK293T cells transfected with tagged plasmids; cell lysates.

Test [2] addresses T2, endogenous NLRP6 (human (endogenous in LN229)) (UniProt P59044).
T2 sequence: T1 sequence
Briefly: co-IP; endogenous proteins in LN229 cell lysates; lysate with the indicated antibody at 4 °C overnight, Protein A/G beads 2 h; control cells of the NLRP6 KO comparisons included.

In test [3] the target is T3, Myc-NLRP6 (human) (UniProt P59044).
T3 sequence: T1 sequence
Briefly: co-IP; LN229 cells transfected with tagged plasmids; cell lysates; Fig. 3d in the presence of BafA1 (0.2 μM).

In test [4] the target is T4, purified recombinant His-NLRP6 (human) (UniProt P59044).
T4 sequence: T1 sequence
Briefly: co-IP; purified His-NLRP6 with purified GST-p85α (WT or K245R), in vitro; both purified.

Test [5] addresses HA-p85α (K245R) (human) (UniProt P27986). The test is described as follows: co-IP; HEK293T cells transfected with tagged plasmids; cell lysates.
For test [6], the target named is HA-p85α (K256R) (human) (UniProt P27986). Described as above.
Test [7] addresses HA-p85α (WT) (human) (UniProt P27986). Described as above.
Test [8] has the same target. Briefly: co-IP; RBX1 knockout (KO) LN229 cells transfected with indicated plasmids; cell extracts.
Test [9] shares this target. The test is described as follows: co-IP; LN229 cells transfected with tagged plasmids; cell lysates; Fig. 3d in the presence of BafA1 (0.2 μM).
Test [10] concerns the target T3, Myc-NLRP6 (human). The test is described as follows: co-IP; HEK293T cells transfected with tagged plasmids; cell lysates.
The target in test [11] is endogenous p85α (human (endogenous in LN229)) (UniProt P27986). Briefly: co-IP; NLRP6 knockout (KO) LN229 cells; cell lysates.
The target is the same in test [12]. The test is described as follows: co-IP; endogenous proteins in LN229 cell lysates; lysate with the indicated antibody at 4 °C overnight, Protein A/G beads 2 h; control cells of the NLRP6 KO comparisons included.
For test [13], the target named is T5, Flag-NLRP6 (human) (UniProt P59044).
T5 sequence: T1 sequence
Briefly: co-IP; HEK293T cells transfected with tagged plasmids; cell lysates.

For test [14], the target named is T6, NLRP6 NOD domain (amino acids 104–726), Flag-tagged deletion construct (human) (UniProt P59044).
T6 sequence: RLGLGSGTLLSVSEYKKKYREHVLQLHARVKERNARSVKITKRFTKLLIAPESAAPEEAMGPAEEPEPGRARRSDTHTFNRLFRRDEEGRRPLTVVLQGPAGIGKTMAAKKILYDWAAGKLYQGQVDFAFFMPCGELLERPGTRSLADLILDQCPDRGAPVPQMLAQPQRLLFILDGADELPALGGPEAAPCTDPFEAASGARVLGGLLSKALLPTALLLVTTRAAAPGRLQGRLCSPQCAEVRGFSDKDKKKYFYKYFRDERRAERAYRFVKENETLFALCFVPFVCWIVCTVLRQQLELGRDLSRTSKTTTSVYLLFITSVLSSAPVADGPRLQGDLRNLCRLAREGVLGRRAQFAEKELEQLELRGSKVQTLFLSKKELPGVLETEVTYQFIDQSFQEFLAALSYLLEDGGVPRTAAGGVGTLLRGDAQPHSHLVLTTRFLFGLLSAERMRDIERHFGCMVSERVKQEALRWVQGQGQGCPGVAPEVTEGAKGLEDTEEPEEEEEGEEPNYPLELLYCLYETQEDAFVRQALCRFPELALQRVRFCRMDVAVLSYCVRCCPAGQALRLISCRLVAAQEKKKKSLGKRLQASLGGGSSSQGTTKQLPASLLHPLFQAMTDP
The test is described as above.

For the substance “p85α SR domain (amino acids 1–301) (from UniProt P27986 1-301) (domain or fragment)”, in test [1], the binding entry is reported as “binds”. In the case of “endogenous p85α (from UniProt P27986 1-724)”, in test [2], the binding result is “binds”. On to “HA-p85α (K256R) (from UniProt P27986 1-724)”, for which, in test [3], the binding entry is “binds”. Turning to “GST-p85α (K245R) (from UniProt P27986 1-724)”, the binding entry in test [4] is given as “no binding”. As to “Flag-tagged wild type (WT) OPTN (from UniProt Q96CV9 1-577)”, the binding entry is reported as “no binding” in test [5]; “no binding” in test [6]; “binds” in test [7]; “no binding (condition: in RBX1 KO LN229 cells)” in [8]; “binds” in test [9]. Take “HA-p85α (K245R) (from UniProt P27986 1-724)”: the binding entry in test [3] is “no binding”. For the substance “SKP1 (transfected) (from UniProt P63208 1-163)”, the binding result in test [10] was “no binding”. “OPTN in LN229 cells (from UniProt Q96CV9 1-577)”: the binding result is “no binding (condition: in NLRP6 KO LN229 cells)” in [11] and “binds” in test [12]. As to “HA-p85α (WT) (from UniProt P27986 1-724)”, the binding entry in test [13], in test [1], in test [14] and in test [3] was “binds” throughout.
